Experimental data from the supplement of paper PMC3334620.
In all, about 33,000 sequences were measured (“E-score (-0.5 to 0.5)”: median about -0.04, highest 2% from about 0.36 on). The list shows a part of the results.

target: T1, Hmlalpha2 (UniProt P0CY09); test: PBM E-score (8-mer binding enrichment) (E-score (-0.5 to 0.5)); higher = stronger / more preferred TF binding; most listed sequences are background and not binding sites; conditions: protein concentration: 200 nM; construct: GST-full length
T1 sequence: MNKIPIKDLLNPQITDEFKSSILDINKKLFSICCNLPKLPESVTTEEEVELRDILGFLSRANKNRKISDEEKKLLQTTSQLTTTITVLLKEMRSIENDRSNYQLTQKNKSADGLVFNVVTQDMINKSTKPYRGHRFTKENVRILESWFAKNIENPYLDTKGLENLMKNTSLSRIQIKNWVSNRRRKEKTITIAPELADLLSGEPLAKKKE
Outline: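 Bound GST-tagged yeast transcription factors, applied at about 100-200 nM to double-stranded universal all-10-mer Agilent arrays, were detected with fluorescent anti-GST. Scans were normalised with masliner. A modified Wilcoxon-Mann-Whitney statistic, the E-score, was assigned to each ungapped eight-base word pooled with its reverse complement by the Universal PBM Analysis Suite.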

Sequence	PBM E-score
CATCCATA	-0.0918
CACAGGAA	0.0626
GCATTGAC	0.0683
ACAATCGG	0.0747
AACACGAC	0.424
GGTGTTAC	0.223
ACTTAGCA	0.0572
CCACCTCA	-0.262
AATCTCAA	-0.00841
GAGCTTCC	-0.135
GCTCCTCC	-0.3
CACCGCAA	-0.0276
ATGCTGGA	-0.0513
AGACAAAA	-0.0151
AAGTGACA	0.241
GCAGCGGA	-0.0923
GCACTCGC	-0.106
ACTTTTTC	-0.113
CAGCCTCA	-0.201
AAAATAGC	-0.223
AGTAACTG	0.141
ACGGACAA	0.0112
AGCAAACT	0.141
CGTGTTGC	0.301
CGATCGCG	-0.0248

Sequence	PBM E-score
CCGCTACG	-0.107
CGGTTCTC	-0.0536
ACCTGTTG	0.123
GAGGCACC	-0.421
CAAGGGGC	-0.229
AAGACGCG	0.0172
ACACAATG	0.275
TAATGACA	0.239
ACATCCGA	0.0299
CACTTATC	-0.0472
ACTGGTAG	-0.0265
CAATTTAA	0.211
CTGGGCAA	-0.132
ACGACTTC	0.0834
ATATTCAC	0.0166
GGCGTACA	0.144
CCACGTCC	-0.284
ATAGATAC	0.0935
TTACTGAA	0.14
CCGTATGA	0.00811
GTACACGA	0.425
AGCAGTCC	-0.283
CGCGCTGA	-0.247
GACATTCA	0.0904
CTAAGACA	0.136

Sequence	PBM E-score
GACAAATC	-0.0792
AGGCCCTG	-0.136
CCGGTTTC	-0.166
GAAAAAAA	0.0886
TCTGCTCA	-0.0593
CAAAAGGG	-0.125
CGCCTTAC	0.0577
GAAAAGAC	-0.00681
GCGCTGCC	-0.265
GAAATGCA	-0.0871
CAATCGAG	-0.336
CGGTTTTA	-0.0131
ACCATGTC	0.296
CATTCCCC	-0.14
CCTAAGCA	-0.222
CTGCTATA	-0.125
GCGTGACA	0.265
CGCTGGAA	-0.202
GGAAGTAA	0.093
GACATGAC	0.29
GGTAATTA	0.25
CCGAATTC	-0.123
ATCACGGG	-0.251
AAGCTCTA	0.0212
CGACGGCA	-0.134

Sequence	PBM E-score
GAAGCTGA	0.0281
CACTACGA	0.1
AGATAACG	0.114
GGATTAGA	-0.216
GATTTACA	0.429
AGTTTTTG	0.131
GCACCGAC	-0.173
ACGTTGCT	0.183
CATAATGC	0.015
CACTGTAC	-0.129
GGCAGGAC	-0.262
GCCTCCCA	-0.272
GAACGACA	0.0971
CTTATTTC	0.129
ATTACTTA	0.3
CGTTACCA	0.104
CCGTACCA	-0.176
AACCCGCG	0.155
CTAAACAG	-0.128
CCCCGACG	-0.126
CATAGCAC	0.147
AACATGTG	0.395
CGGTGACA	0.05
CTAGACGC	-0.0851
CTAAAGAG	-0.158

Sequence	PBM E-score
AAAAGTGC	-0.139
GAATCATA	0.0242
CATCACTA	0.025
GTCATAAC	-0.0123
CATTTAAA	0.179
CCACCGGG	-0.282
AGGCCAGA	-0.206
CCGGTTTA	0.0123
CCGCAAGA	-0.263
AGATCATA	0.195
ACAGAAAA	0.0867
AATATAGA	0.187
AAACTCCT	-0.244
AGGTGCAC	-0.159
AAGTTTAT	0.164
GCATAGCA	-0.0391
GACCTTGC	-0.356
GGGGTCTA	0.00917
GTATCCCA	-0.0842
ATTCGCAA	0.0556
AAAGGCAA	0.0184
CACTACTA	0.00081
CACCCATG	0.126
CGAATGAC	0.185
GTAAAGAA	0.355

Sequence	PBM E-score
CATTTAAG	-0.0527
AAGAAGGC	-0.243
CGTAGCTC	0.213
CACTCTAA	-0.0791
GACGCCTC	-0.0494
GGGAATTA	0.102
ACCGTTAC	0.0699
GCAGTTAC	0.211
CATTATAG	0.0352
GTTACAGA	0.0217
ATCTCTCG	-0.162
CCCACGCC	-0.189
ATACGAAT	0.162
TCGATTCA	0.0507
CCTCATCA	-0.0191
ATGACTTC	-0.0744
ACTTTCCT	-0.269
CGCAAGCC	0.116
GACGGCAA	-0.119
CATTTGGC	-0.0276
ACGCCTGA	0.151
GTGACTTA	0.0596
TATGCGCA	-0.0846
AAGGTAAG	0.0306
CAATCGCG	-0.178

Sequence	PBM E-score
ACGCGACC	0.25
GGCAGGGA	-0.256
TCATGGCA	-0.177
TAACCCAA	0.0356
CGTCGAGC	-0.0453
AGTAAGGA	-0.0302
CCCAATTC	0.179
CAATAAGC	-0.176
AGTAGTAC	0.196
ATATGAGC	-0.152
GGCATACC	-0.211
AAGGTTAT	-0.0785
CAAAGCTG	0.0593
AACCGAGT	-0.138
AACTGTTA	0.115
CCTGCGTA	0.304
GGCAAAGA	-0.0294
ACACGTCG	0.302
AATGGTTC	0.172
GAGTGGCC	-0.211
AGTGCGTG	0.0463
ATGAGACA	0.00947
